{"source": "paper PMC6919601", "about": "“Identification of Plasmodium dipeptidyl aminopeptidase allosteric inhibitors by high throughput screening” (PLoS ONE, 2019)", "note": "The campaign covered roughly 110,000 compounds. About 230 (0.21%) showed an effect of 50% or more. This is one part of the list.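 Also: 30 min substrate incubation versus DMSO and 10 µM JCP410 controls.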", "data": [{"target": "DPAP1 (Plasmodium falciparum, UniProt Q8IIJ9)", "sequence (Q8IIJ9 whole entry, looked up)": "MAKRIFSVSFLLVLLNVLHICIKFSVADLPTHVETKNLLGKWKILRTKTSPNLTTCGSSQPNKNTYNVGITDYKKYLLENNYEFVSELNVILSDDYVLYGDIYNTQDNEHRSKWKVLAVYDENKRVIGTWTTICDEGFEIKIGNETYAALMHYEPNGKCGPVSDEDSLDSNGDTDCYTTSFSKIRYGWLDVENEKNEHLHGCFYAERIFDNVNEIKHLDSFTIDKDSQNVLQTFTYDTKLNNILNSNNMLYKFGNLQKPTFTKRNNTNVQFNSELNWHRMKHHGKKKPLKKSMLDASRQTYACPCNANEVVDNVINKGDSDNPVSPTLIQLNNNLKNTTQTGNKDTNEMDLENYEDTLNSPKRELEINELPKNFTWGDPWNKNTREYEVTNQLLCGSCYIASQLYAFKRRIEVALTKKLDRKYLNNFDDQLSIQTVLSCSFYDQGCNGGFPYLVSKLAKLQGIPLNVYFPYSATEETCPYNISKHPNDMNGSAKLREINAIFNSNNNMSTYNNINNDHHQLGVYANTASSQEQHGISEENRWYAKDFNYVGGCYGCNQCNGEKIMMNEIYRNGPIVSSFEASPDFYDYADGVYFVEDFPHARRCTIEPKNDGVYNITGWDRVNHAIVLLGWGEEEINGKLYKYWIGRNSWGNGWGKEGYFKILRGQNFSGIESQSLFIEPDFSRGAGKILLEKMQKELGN", "assay": "primary screen, percent inhibition; read by cleavage of a fluorogenic dipeptide substrate; higher = more effect of the substance", "set-up": "species or system P. falciparum D10 trophozoite lysates; single well", "units": {"% Inhibition @ 10 uM": "%"}, "values": [{"smiles": "COCCNC(=O)c1cc2nc(-c3ccc(C)cc3)cc(C(F)(F)F)n2n1", "% Inhibition @ 10 uM": 0.161}, {"smiles": "N#Cc1nc(/C=C/c2cccs2)oc1NC1CC1", "% Inhibition @ 10 uM": -1.71}, {"smiles": "COc1cc(CNC(=O)c2cc(C)[nH]n2)cc(OC)c1OC", "% Inhibition @ 10 uM": -1.08}, {"smiles": "CC12C(=O)N(c3ccc(Cl)c(Cl)c3)C(=O)C1C1C=CC2C1", "note": "(centres unmarked)", "% Inhibition @ 10 uM": 3.84}, {"smiles": "Cc1ccc(C)c(OCCN2CCCC2)c1", "% Inhibition @ 10 uM": -0.603}, {"smiles": "CCCCCOc1ccc(NC(=O)C2CC(=O)N(c3ccc(Br)cc3)C2)cc1", "note": "(centres unmarked)", "% Inhibition @ 10 uM": 0.385}, {"smiles": "Cc1cccc(CNc2nc(N)n(-c3ccccc3)n2)c1", "% Inhibition @ 10 uM": 0.778}, {"smiles": "O=C(Nc1cnn(C23CC4CC(CC(C4)C2)C3)c1)c1cc(-c2ccccc2O)no1", "% Inhibition @ 10 uM": 1.64}, {"smiles": "COc1ccc(C2=N/C(=C/c3ccc(C(C)C)cc3)C(=O)O2)cc1OC", "% Inhibition @ 10 uM": -3.62}, {"smiles": "O=C(CSc1nnc(-c2ccccc2)o1)N1CCCCC1", "% Inhibition @ 10 uM": 4.58}, {"smiles": "CN1C(=O)NC(=O)/C(=C\\c2ccc(-c3ccc(OC(F)(F)F)cc3)o2)C1=O", "% Inhibition @ 10 uM": 0.9}, {"smiles": "O=C(c1cnn2c(C(F)(F)F)cc(-c3ccccc3)nc12)N1CCCCC1", "% Inhibition @ 10 uM": -1.99}, {"smiles": "COc1cc2c(cc1OC)C(=O)C(C)(C)N(Cc1ccccc1)C2", "% Inhibition @ 10 uM": 0.774}, {"smiles": "Cc1cc(Cl)ccc1OCC(=O)Nc1ccc(S(=O)(=O)N2CCCCCC2)cc1", "% Inhibition @ 10 uM": 4.11}, {"smiles": "Cc1ccccc1-c1nnc(SCC(=O)N2CCCCC2C)o1", "note": "(centres unmarked)", "% Inhibition @ 10 uM": -2.8}, {"smiles": "C=C1CC(OC(C)=O)C(C)(C)CC2=C(C)CCC12", "note": "(centres unmarked)", "% Inhibition @ 10 uM": 4.73}, {"smiles": "O=C(CSc1nc2c(c(=O)n1CCc1ccccc1)SCC2)NC1CCCC1", "% Inhibition @ 10 uM": -0.264}, {"smiles": "CCOC(=O)NC(=O)/C=C(\\C)NCCc1ccccc1", "% Inhibition @ 10 uM": 20.6}, {"smiles": "O=C(Nc1ccccc1F)c1ccco1", "% Inhibition @ 10 uM": -3.26}, {"smiles": "CCOC(=O)c1c(C)n(C)c2ccc(OCC(O)Cn3c(C)nc4ccccc43)cc12", "note": "(centres unmarked)", "% Inhibition @ 10 uM": -1.33}, {"smiles": "CC(C)CC(C(=O)NCC#N)c1cccc(-c2ccc(N(C)C)cc2)c1", "note": "(centres unmarked)", "% Inhibition @ 10 uM": 1.7}, {"smiles": "CCCCn1c(SCC(=O)Nc2ccccc2Cl)nc2c1c(=O)n(C)c(=O)n2C", "% Inhibition @ 10 uM": -7.4}, {"smiles": "CC(C)c1ccc(/C=C2/C(=N)N3C(=NC2=O)SN=C3S(=O)(=O)C(C)C)cc1", "% Inhibition @ 10 uM": 0.163}, {"smiles": "O=C1CCCC2=C1C(c1ccc([N+](=O)[O-])cc1)Nc1ccc3ncccc3c12", "note": "(centres unmarked)", "% Inhibition @ 10 uM": -0.736}, {"smiles": "CC(C)(C)C(=O)NCc1cn2ccsc2n1", "% Inhibition @ 10 uM": 4.14}, {"smiles": "Cn1c(CNC(=O)c2ccc(F)cc2)nc2ccccc21", "% Inhibition @ 10 uM": -4.86}, {"smiles": "COc1cc(CN2CCN(Cc3ccc4ccccc4c3)CC2)cc(OC)c1OC", "% Inhibition @ 10 uM": 7.1}, {"smiles": "CN(Cc1ccc(-n2cccn2)cc1)C(=O)c1cnn2c1NC(c1ccco1)CC2C(F)(F)F", "note": "(centres unmarked)", "% Inhibition @ 10 uM": -0.725}, {"smiles": "O=C(Cn1c(=O)c2sccc2n(Cc2cccc(Cl)c2)c1=O)NCc1ccco1", "% Inhibition @ 10 uM": -3.77}, {"smiles": "CCOC(=O)c1sc(NC(=O)CCCCCN2C(=O)c3ccccc3C2=O)nc1C", "% Inhibition @ 10 uM": 4.86}, {"smiles": "COc1ccc(C(=O)/C=C/c2ccc([N+](=O)[O-])cc2)c(OC)c1", "% Inhibition @ 10 uM": 0.467}, {"smiles": "Cc1ccc(C(CC(=O)NC2CCCC2)N2Cc3ccccc3C2=O)cc1", "note": "(centres unmarked)", "% Inhibition @ 10 uM": 2.98}, {"smiles": "Cc1ccccc1-n1c(SCc2c(F)cccc2F)nc2nncc-2c1O", "% Inhibition @ 10 uM": -2.38}, {"smiles": "CCn1c(=N)n(CCOc2cccc(C)c2)c2ccccc21", "% Inhibition @ 10 uM": 0.528}, {"smiles": "CCN1C(=O)C2C3C=CC(C3=C3C4CC5CC(C4)CC3C5)C2C1=O", "note": "(centres unmarked)", "% Inhibition @ 10 uM": -4.76}, {"smiles": "CNC(=O)C1CCN(S(=O)(=O)c2ccc(OC)c(OC)c2)CC1", "% Inhibition @ 10 uM": -3.74}, {"smiles": "COc1ccc(-c2cc3c(=O)n(CC(=O)NC(C)CCc4ccccc4)ncn3n2)cc1", "note": "(centres unmarked)", "% Inhibition @ 10 uM": 2.27}, {"smiles": "CC(C)(C)Nc1nc(Oc2ccc(O)nn2)nc(N2CCOCC2)n1", "% Inhibition @ 10 uM": -0.958}, {"smiles": "CC1(C)Cc2ccccc2-c2nnc(-c3ccncc3)n21", "% Inhibition @ 10 uM": -0.436}, {"smiles": "CCCOc1ccc(C(=O)C2=C(O)C(=O)N(CCN(C)C)C2c2ccccc2F)cc1C", "note": "(centres unmarked)", "% Inhibition @ 10 uM": 3.15}, {"smiles": "CCCCOc1ccc(S(=O)(=O)N2CCN(c3ccc(F)cc3)CC2)cc1", "% Inhibition @ 10 uM": 2.03}, {"smiles": "COc1ccc(C(=O)N2C3C=CC(C3)C2(C(F)(F)F)C(F)(F)F)cc1", "note": "(centres unmarked)", "% Inhibition @ 10 uM": 1.72}, {"smiles": "NS(=O)(=O)c1cc(C(=O)Nc2ccc3c(c2)OCO3)c(Cl)cc1Cl", "% Inhibition @ 10 uM": -2.58}, {"smiles": "CN1CCCN(C(=O)/C(=C/c2cccc(F)c2)NC(=O)c2ccccc2Br)CC1", "% Inhibition @ 10 uM": 1.02}, {"smiles": "COc1ccc(NC(=O)/C=C\\C(=O)O)cc1", "% Inhibition @ 10 uM": -1.77}, {"smiles": "N#CC1=C(SCC(=O)Nc2nccs2)NC(=O)CC1c1cccs1", "note": "(centres unmarked)", "% Inhibition @ 10 uM": 2.38}, {"smiles": "Cc1cc2oc(C(=O)N(Cc3ccccc3)C3CCS(=O)(=O)C3)c(C)c2cc1C", "note": "(centres unmarked)", "% Inhibition @ 10 uM": 0.389}, {"smiles": "COCc1nc2ccccc2n1CCOc1ccccc1C", "% Inhibition @ 10 uM": -3.79}, {"smiles": "Cc1ccc(-c2nn(CC(=O)NC3CCCc4ccccc43)c(=O)c3ccccc23)cc1", "note": "(centres unmarked)", "% Inhibition @ 10 uM": -3.44}, {"smiles": "Cc1ccc(/C=C2\\SC(N3CCN(Cc4ccccc4)CC3)=NC2=O)cc1", "% Inhibition @ 10 uM": -1.42}, {"smiles": "O=C(O)COc1nc(-c2ccccc2)sc1C(=O)O", "% Inhibition @ 10 uM": -2.83}, {"smiles": "CC1CCN(C(=O)c2nn(C)c3c2CCc2sccc2-3)CC1", "% Inhibition @ 10 uM": 2.98}, {"smiles": "O=C(NC1=NCCS1)c1ccc(N2C(=O)c3ccccc3C2=O)cc1", "% Inhibition @ 10 uM": -2.32}, {"smiles": "CCN(C(=O)COc1ccc(C)cc1Br)c1ccccc1", "% Inhibition @ 10 uM": -3.58}, {"smiles": "NC(=O)C1CCCN(C2CCC(c3ccccc3)CC2)C1", "note": "(centres unmarked)", "% Inhibition @ 10 uM": -3.27}, {"smiles": "COc1cc(OC)cc(C(=O)N2CCN(Cc3cccc(Cl)c3)CC2)c1", "% Inhibition @ 10 uM": -14.4}, {"smiles": "CCOC(=O)Nc1ccc(-c2cccc(C(CS(=O)(=O)Cc3ccccc3OC(F)F)C(=O)NCC#N)c2)cc1", "note": "(centres unmarked)", "% Inhibition @ 10 uM": -3.49}, {"smiles": "CC[C@H](NC(=O)[C@@H](NC(=O)c1ccc(-c2ccccc2Cl)cc1)C1CCCCC1)C(=O)c1nc2ccccc2o1", "% Inhibition @ 10 uM": -1.82}, {"smiles": "COC(=O)c1c(C)[nH]c(C(=O)CSc2nnc3ccccn23)c1C", "% Inhibition @ 10 uM": -1.4}, {"smiles": "CC1=C(C(=O)OC(C)C)C(c2c(O)ccc3ccccc23)NC(=O)N1", "note": "(centres unmarked)", "% Inhibition @ 10 uM": -1.29}, {"smiles": "O=C(CCc1ccc(S(=O)(=O)NCCc2ccccc2)cc1)N1CCc2ccccc2C1", "% Inhibition @ 10 uM": 6.42}, {"smiles": "Clc1ccc(-n2cc(-c3ccccc3)c3c(NCCCN4CCOCC4)ncnc32)cc1", "% Inhibition @ 10 uM": -3.56}]}]}
